Results on 45 compounds are retold here after patent publication US6448281B1 (Boehringer Ingelheim (Canada) Ltd., priority 2000, dated 2002).

The assay addresses hepatitis C virus RNA dependent polymerase (NS5B) (Hepacivirus hominis (Hepatitis C virus), UniProt P26663). Put plainly: Inhibition of NS5B RNA dependent RNA polymerase activity (SPA, UMP-[5,6 3H] incorporation).
The mark [1] stands for this setting: IC50 μM, first compound table (printed title TABLE 10; Table 1).

SMILES strings stand for the structures.

Turning to `O=C(O)COc1ccc2[nH]cc(C[C@H](NC(=O)c3ccc4c(c3)nc(-c3ccc(OCC(=O)NCCNC(=O)c5ccc(C(=O)c6ccccc6)cc5)cc3)n4C3CCCCC3)C(=O)O)c2c1` [Entry 12026, (S)-3-(5-Carboxymethoxy-1H-indol-3-yl)-2-({1-[1-cyclohexyl-2-(4-{[2-({1-[4-(1-phenyl-methanoyl)-phenyl]-methanoyl}-amino)-ethylcarbamoyl]-methoxy}-phenyl)-1H-benzimidazol-5-yl]-methanoyl}-amino)-propionic Acid], the IC50 (in general, the concentration that inhibits the measured activity by half) (IC50, Table 12) is < 1 µM. Under “IC50 μM, Table 7”, `CC(C)Oc1ccc(-c2nc3cc(C(=O)O)ccc3n2C2CCCCC2)cc1` [Entry 7016] displayed an IC50 of 5 to 10 µM. In the case of `O=C(N[C@H](C(=O)O)[C@H](O)c1ccc(-c2nnn[nH]2)cc1)c1ccc2c(c1)nc(-c1ccoc1)n2C1CCCCC1` [Entry 18001], the concentration for half-maximal inhibition (IC50) (IC50, Table 18) was < 1 µM. As for `O=C(O)COc1ccc2[nH]cc(C[C@H](NC(=O)c3ccc4c(c3)nc(-c3ccc(C(=O)NCCNC(=S)Nc5ccc(-c6c7ccc(=O)cc-7oc7cc(O)ccc67)c(C(=O)O)c5)cc3)n4C3CCCCC3)C(=O)O)c2c1` [Entry 12021, 5-[3-(2-{[1-(4-{5-[(S)-1-Carboxy-2-(5-carboxymethoxy-1H-indol-3-yl)-ethylcarbamoyl]-1-cyclohexyl-1H-benzimidazol-2-yl}-phenyl)-methanoyl]-amino}-ethyl)-thioureido]-2-(6-hydroxy-3-oxo-3H-xanthen-9-yl)-benzoic Acid], the half-inhibitory concentration (IC50) (IC50, Table 12) was < 1 µM. Under setting [1], `CC(C)(Oc1ccc2[nH]cc(CCNC(=O)c3ccc4c(c3)nc(-c3ccoc3)n4C3CCCCC3)c2c1)C(=O)O` [Entry 1034] came in with a 50% inhibitory concentration (IC50) of 1 to 5 µM.

Under setting [1], `O=C(Nc1ccccc1)c1ccc2c(c1)nc(-c1ccoc1)n2C1CCCCC1` [Entry 1007] came in with an IC50 of 1 to 5 µM. For the compound `CC(Cc1ccc(O)cc1)(NC(=O)c1ccc2c(c1)nc(-c1ccccn1)n2C1CCCCC1)C(=O)O` (stereo not drawn) [Entry 2023], under “IC50 μM, Table 2”, the IC50 fell in the range of 10 to 25 µM. On to `O=C(N[C@@H](Cc1c[nH]c2ccc(O)cc12)C(=O)NCCO)c1ccc2c(c1)nc(-c1ccoc1)n2C1CCCCC1` [Entry 13016, 1-Cyclohexyl-2-furan-3-yl-1H-benzimidazole-5-carboxylic Acid [(S)-1-(2-Hydroxy-ethylcarbamoyl)-2-(5-hydroxy-1H-indol-3-yl)-ethyl]-amide], for which, for the setting “IC50, Table 13”, the IC50 was < 1 µM. `O=C(NNC(=O)c1ccc2c(c1)nc(-c1ccoc1)n2C1CCCCC1)OCc1ccccc1` [Entry 1301] gave an IC50 under setting [1] of 5 to 10 µM. Regarding `COc1ccc(C(NC(=O)c2ccc3c(c2)nc(-c2ccco2)n3C2CCCCC2)C(=O)O)cc1OC` (stereo not drawn) [Entry 2048], the half-maximal inhibitory concentration (IC50) (IC50 μM, Table 2) fell in the range of 1 to 5 µM. Consider `O=C(N[C@@H](Cc1c[nH]c2ccc(O)cc12)C(=O)O)c1ccc2c(c1)nc(C(F)(F)F)n2C1CCCCC1` [Entry 2111], for which, where the note is “IC50 μM, Table 2”, the IC50 lay in the range of 1 to 5 µM. Turning to `CC1CCCCC1n1c(-c2ccoc2)nc2cc(C(=O)NC(Cc3c[nH]c4ccc(O)cc34)C(=O)O)ccc21` (stereo not drawn) [Entry 22017], under “IC50 μM, Table 22”, the IC50 is < 1 µM. Regarding `Cc1cc(CC(NC(=O)c2ccc3c(c2)nc(-c2ccoc2)n3C2CCCCC2)C(=O)O)cc(C)c1O` (stereo not drawn) [Entry 16034], under “IC50, Table 16”, the IC50 is < 1 µM. As for `O=C(N[C@@H](Cc1c[nH]c2ccc(O)cc12)C(=O)NCCN1CCCC1)c1ccc2c(c1)nc(-c1ccoc1)n2C1CCCCC1` [Entry 13019, 1-Cyclohexyl-2-furan-3-yl-1H-benzimidazole-5-carboxylic Acid [(S)-2-(5-Hydroxy-1H-indol-3-yl)-1-(2-pyrrolidin-1-yl-ethylcarbamoyl)-ethyl]-amide], the IC50 (IC50, Table 13) was < 1 µM. For `COc1ccc(CNC(=O)c2ccc3c(c2)nc(-n2cccc2)n3C2CCCCC2)cc1OC` [Entry 2011], the IC50 (IC50 μM, Table 2) fell in the range of 10 to 25 µM. Turning to `O=C(O)CNC(=O)N1CCCC(NC(=O)c2ccc3c(c2)nc(-c2ccoc2)n3C2CCCCC2)C1` (stereo not drawn) [Entry 1194], under setting [1], the IC50 lay within 10 to 25 µM. As for `O=C(N[C@@H](Cc1c[nH]c2ccc(O)cc12)C(=O)O)c1ccc2c(c1)nc(-c1ccoc1)n2[C@@H]1CCC[C@H]1OCc1ccccc1` [Entry 3034], the IC50 (IC50 μM, Table 3) was in the range of 5 to 10 µM.

For the compound `CCOC(=O)CCNC(=O)N[C@H]1CC[C@H](NC(=O)c2ccc3c(c2)nc(-c2ccoc2)n3C2CCCCC2)CC1` [Entry 1216], the IC50 under setting [1] is 10 to 25 µM. The same measure, in the same setting: in the case of `CC(CC(=O)Nc1ccc(CC(=O)O)cc1)NC(=O)c1ccc2c(c1)nc(-c1ccoc1)n2C1CCCCC1` (stereo not drawn) [Entry 1163] it was 5 to 10 µM.

As for `O=C(NCC1CCN(Cc2ccccc2C(=O)O)CC1)c1ccc2c(c1)nc(-c1ccoc1)n2C1CCCCC1` [Entry 1267], under setting [1], the IC50 is 10 to 25 µM. As to `COC(=O)[C@H](Cc1cn(C)c2ccc(OCC(=O)O)cc12)NC(=O)c1ccc2c(c1)nc(-c1ccoc1)n2C1CCCCC1` [Entry 11017], under “IC50, Table 11”, the IC50 is < 1 µM. Take `O=C(N[C@@H](Cc1cc(Br)c(O)c(Br)c1)C(=O)O)c1ccc2c(c1)nc(-c1ccoc1)n2C1CCCCC1` [Entry 16041]: the IC50 (IC50, Table 16) is < 1 µM. On to `Cc1cc(O)cc(C)c1CC(NC(=O)c1ccc2c(c1)nc(-c1ccoc1)n2C1CCCCC1)C(=O)O` (stereo not drawn) [Entry 1069], for which the IC50 under setting [1] lay in the range of 1 to 5 µM.

For `CC(C)CCc1nc2cc(C(=O)N[C@@H](Cc3c[nH]c4ccc(O)cc34)C(=O)O)ccc2n1C1CCCCC1` [Entry 12014], the IC50 (IC50, Table 12) was < 1 µM. As to `O=C(N[C@@H](Cc1c[nH]c2ccc(O)cc12)C(=O)O)c1ccc2c(c1)nc(-c1ccc(O)cc1O)n2C1CCCCC1` [Entry 2089], the IC50 (IC50 μM, Table 2) fell in the range of 1 to 5 µM. For the compound `O=C(N[C@@H](Cc1c[nH]c2ccc(O)cc12)C(=O)O)c1ccc2c(c1)nc(-c1ccoc1)n2C1CCC1` [Entry 22020], the IC50 (IC50 μM, Table 22) is < 1 µM. As to `COc1ccc(C(NC(=O)c2ccc3c(c2)nc(-c2ccc(C=CC(=O)O)cc2)n3C2CCCCC2)C(=O)O)cc1OC` (stereo not drawn) [Entry 2083], the IC50 (IC50 μM, Table 2) fell in the range of 10 to 25 µM. `O=C(N[C@@H](Cc1c[nH]c2ccc([N+](=O)[O-])cc12)C(=O)O)c1ccc2c(c1)nc(-c1ccoc1)n2C1CCCCC1` [Entry 1125, (S)-2-{[1-(1-Cyclohexyl-2-furan-3-yl-1H-benzimidazol-5-yl)-methanoyl]-amino}-3-(5-nitro-1H-indol-3-yl)-propionic Acid]: under setting [1], the IC50 lay within 1 to 5 µM. Take `O=C(O)CCc1ccc(C[C@H](NC(=O)c2ccc3c(c2)nc(-c2ccoc2)n3C2CCCCC2)C(=O)O)cc1` [Entry 16038]: the IC50 (IC50, Table 16) was < 1 µM.

As for `O=C(N[C@@H](Cc1ccc(O)cc1)C(=O)O)c1ccc2c(c1)nc(-c1ccoc1)n2C1CCCCC1` [Entry 1040, (S)-2-([1-(1-Cyclohexyl-2-furan-3-yl-1H-benzoimidazol-5-yl)methanoyl]amino}-3-(4-hydroxyphenyl)propionic Acid], under setting [1], the IC50 was < 1 µM. As to `COC(=O)[C@H](Cc1ccc(NC#N)cc1)NC(=O)c1ccc2c(c1)nc(-c1ccoc1)n2C1CCCCC1` [Entry 16027], the IC50 (IC50, Table 16) is < 1 µM.

`CC(C)[C@H](Cc1ccc(OCC(=O)O)cc1)NC(=O)c1ccc2c(c1)nc(-c1ccoc1)n2C1CCCCC1` [Entry 1088] yielded an IC50 under setting [1] of 1 to 5 µM. `O=C(N[C@@H](Cc1ccc(-c2nnn[nH]2)cc1)C(=O)O)c1ccc2c(c1)nc(-c1ccoc1)n2C1CCCCC1` [Entry 16017, (S)-2-{[1-(1-Cyclohexyl-2furan-3-yl-1H-benzoimidazol-5-yl)methanoyl]amino}-3-[4-(1H-tetrazol-5-yl)phenyl]propionic Acid]: the IC50 (IC50, Table 16) is < 1 µM.

As to `O=C(O)c1ccc2c(c1)nc(-c1ccccn1)n2-c1ccccn1` [Entry 7009], where the note is “IC50 μM, Table 7”, the IC50 lay in the range of 10 to 25 µM. With `O=C(N[C@@H](Cc1ccc(O)cc1)C(=O)Nc1cccnc1)c1ccc2c(c1)nc(-c1ccoc1)n2C1CCCCC1` [Entry 16046], for the setting “IC50, Table 16”, the IC50 is < 1 µM. `O=C(O)c1cccc(NC(=O)N2CCC(CNC(=O)c3ccc4c(c3)nc(-c3ccoc3)n4C3CCCCC3)CC2)c1` [Entry 1204] displayed an IC50 under setting [1] of 5 to 10 µM. On to `O=C(O)CC(NC(=O)c1ccc2c(c1)nc(-c1ccccn1)n2C1CCCCC1)c1ccccc1` (stereo not drawn) [Entry 2056], for which the IC50 (IC50 μM, Table 2) fell in the range of 5 to 10 µM.

Compound `O=C(N[C@H](CO)c1ccccc1)c1ccc2c(c1)nc(-c1ccoc1)n2C1CCCCC1` [Entry 1008] returned an IC50 under setting [1] of 1 to 5 µM. `O=C(O)C=Cc1ccc(CN2CCC(NC(=O)c3ccc4c(c3)nc(-c3ccoc3)n4C3CCCCC3)C2)cc1` (stereo not drawn) [Entry 1277] had an IC50 under setting [1] of 1 to 5 µM.

Regarding `O=C(N[C@@H](Cc1c[nH]c2ccc(O)cc12)C(=O)NCC(O)CO)c1ccc2c(c1)nc(-c1ccoc1)n2C1CCCCC1` (mixture of isomers) [Entry 13022, 1-Cyclohexyl-2-furan-3-yl-1H-benzimidazole-5-carboxylic Acid [(S)-1-(2(RS),3-Dihydroxy-propylcarbamoyl)-2-(5-hydroxy-1H-indol-3-yl)-ethyl]-amide], under “IC50, Table 13”, the IC50 is < 1 µM. Take `O=C(N[C@@H](Cc1ccc(NS(=O)(=O)C(F)(F)F)cc1)C(=O)O)c1ccc2c(c1)nc(-c1ccoc1)n2C1CCCCC1` [Entry 16030, (S)-2-{[1-(1-Cyclohexyl-2-furan-3-yl-1H-benzoimidazol-5-yl)-methanoyl]amino}-3-(4-trifluoromethanesulfonylaminophenyl)-propionic Acid]: the IC50 (IC50, Table 16) was < 1 µM. In turn, `COc1ccc([C@H](C)NC(=O)c2ccc3c(c2)nc(-c2ccoc2)n3C2CCCCC2)cc1OC` [Entry 1004] registered an IC50 under setting [1] of 1 to 5 µM. In turn, `O=C(NC(Cc1ccc(O)cc1)c1ccccn1)c1ccc2c(c1)nc(-c1ccoc1)n2C1CCCCC1` (racemic) [Entry 1231, 1-Cyclohexyl-2-furan-3-yl-1H-benzimidazole-5-carboxylic Acid [2-(4-hydroxy-phenyl)-1-pyridin-2-yl-ethyl]-amide] showed an IC50 under setting [1] of 1 to 5 µM. In turn, `O=C(O)C=Cc1ccc(CN2CCCC(NC(=O)c3ccc4c(c3)nc(-c3ccoc3)n4C3CCCCC3)C2)cc1` (stereo not drawn) [Entry 1280] had an IC50 under setting [1] of 1 to 5 µM.

Compound `COc1ccc(C(NC(=O)c2ccc3c(c2)nc(-c2ccoc2)n3C2CCCCC2O)C(=O)O)cc1OC` (stereo not drawn) [Entry 3001] had an IC50 (IC50 μM, Table 3) of 5 to 10 µM.
